Measured values from the supplement of paper PMC5499739.
Over roughly 16,000 sequences, “Z-score” has its median near -0.37; the highest 2% begin near 3.2. The list shows a part of the results.

tested on: RBM10 RRM1-ZnF (GST-tagged construct); experiment: RNAcompete 7-mer binding Z-score; higher = stronger binding preference
How it was run: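 A one-sided Z-score for enrichment, taken across the probes containing each heptamer motif, was assigned to every such motif. The RNA came from a designed pool of 241 399 sequences up to 41 nt (1.5 nmol), bound by 20 pmol of GST-tagged RBM10 constructs in 1 ml Hepes pH 7.8 buffer with glutathione Sepharose beads for 30 min at 4°C. Four 2-min washes at 4°C preceded identification of bound RNA by microarray hybridisation.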

Sequence	RNAcompete 7-mer binding Z-score
ACACGUU	-0.516
UUGCGUA	-0.308
CCGGUCG	-0.331
CAGAAGG	1.57
UCAUACC	-0.919
CGGGAUA	1.56
GUCUAAC	-0.558
ACCAAGC	-0.639
CAUCGGA	-0.331
GAACCUU	-0.88
AGGCUUA	-0.279
CCUCCUA	-0.688
GGAACGG	4.07
UCGGAGG	1.34
UUCAUGU	-0.617
AGCGGGC	1.51
GACUAAA	-0.347
AUCACGU	-0.457
GUCAAAU	-0.334
AUCGACU	-0.766
AAAAUCA	-0.558
GAGCAGC	0.183
UUAUCUA	-0.623

Sequence	RNAcompete 7-mer binding Z-score
ACUAUAG	-0.256
UGCUUAA	-0.665
CGGAACA	0.381
UCGCCAC	-0.425
ACGGUAC	0.41
AUCGGGG	2.27
CUGACUU	-0.776
AUCCGGU	-0.227
CAUGCAU	-0.457
GUAUGGG	4.25
AGUCAUC	-0.681
AACGCGG	0.498
CAGUUGU	-0.613
CCGGGGU	2.08
GGUACUC	0.000789
AAAGCUC	-0.591
ACGAAGG	2.44
GGGUGCC	1.91
AGUUACU	-0.623
UGAUCUU	-0.782
AGCUUAU	-0.646
AUACCGC	-0.714
UAGUAGA	0.469

Sequence	RNAcompete 7-mer binding Z-score
GGUUUUU	0.842
UGGGACU	1.85
AGAGCCC	-0.831
UGUCUGC	-0.617
CGGUUCU	-0.597
GAUUGCU	-0.324
UCGUAAG	-0.441
AGAGUUA	0.00404
GGAGUGA	2.38
ACAGCAG	-0.0285
AUUGUGG	1.61
UCGUCCA	-0.604
UCUAGUC	-0.694
CGUUACU	-0.558
AUUUAGC	-0.704
CAUCGGC	-0.428
AUGUCGA	-0.357
CGCUCAA	-0.526
AGGUUGG	3.06
CAAUCGC	-0.837
GGUUGGA	3.17
UCGUCGC	-0.571
GGCCAAU	-0.305

Sequence	RNAcompete 7-mer binding Z-score
ACUGCAA	-0.642
UUCUCGG	-0.425
AGGUUGC	0.781
GAUCCUU	-0.821
CUAACCU	-0.798
GUCAGUU	-0.383
UCUCGGG	0.095
GGGGGCC	1.44
GUACCCA	-0.759
GGGACGG	3.45
UGCAAGG	1.49
CACUCUA	-0.789
CCCGCGC	-0.181
CCCUUCC	-0.552
UUUCUAG	-0.681
CUUAGAG	-0.324
GGCGUAU	0.131
UGUCAGC	-0.314
AUAACGU	-0.194
CGUAGUC	-0.506
AUCACAC	-0.574
CUCAACA	-0.652
UGGUGAC	1.08

Sequence	RNAcompete 7-mer binding Z-score
AGUCUGA	-0.444
AAAAAAU	-0.223
AGUGAGU	0.673
GUACAUC	-0.305
CUUUAGU	-0.802
UACAGAU	-0.256
UGAUAUA	-0.162
AGGUUAU	0.751
GGAUCGC	0.355
UCGAAUC	-0.675
GGACGGA	2.32
UGCUGAC	0.176
GGUCCGC	-0.168
GGUGGUU	2.61
UGUCAUU	-0.714
UGUGACG	0.423
GAAUCCG	-0.337
GGCAAUA	0.0885
ACGUGCU	-0.509
CUAGUCG	-0.431
GCCGUGG	1.11
GGACCCG	0.345
AUCUCGU	-0.782

Sequence	RNAcompete 7-mer binding Z-score
ACGAACA	-0.298
GCUGAUA	-0.035
GGGGGCG	2.47
CGCGCAG	0.218
AACUUAU	-0.633
AACGGAC	0.413
AAGACAA	0.0593
AAAUGAU	-0.022
ACGCCUU	-0.87
UCACUUG	-0.665
GAGACGC	0.0593
AGAAGGG	3.86
ACAGGCA	0.699
UAAAUGA	-0.318
GCCUCGA	-0.5
CGAUCCU	-0.86
AAUUGUA	-0.272
UCACCGA	-0.636
GAUAGCA	0.287
CUCCGGC	-0.587
GCCAUUU	-1.02
CUGACCG	-0.539
UAUCGCA	-0.513

Sequence	RNAcompete 7-mer binding Z-score
UCAGCGA	-0.532
UAUCAGU	-0.431
UAGAGCG	0.677
CGUUAAA	-0.522
UUUAGAC	-0.649
CAAAGGA	0.992
GCAUGGG	2.76
GGCUGAA	0.706
CUUGUUA	-0.698
UAAGCCA	-0.753
AGCGUGA	0.332
UGCCACA	-0.35
UGUUGCC	-0.457
UCCGGUA	-0.337
AGUUGAG	1.05
CCCCAAU	-0.532
CCUACGG	-0.295
AUAGAAU	-0.132
AUCAAGU	-0.36
CGUUCCU	-0.811
CACCGUC	-0.464
GAGCUGG	1.88
AUCUAUC	-0.688

Sequence	RNAcompete 7-mer binding Z-score
GUAGUUA	0.128
ACUCUAC	-0.753
GAGGAGU	1.54
GAGCGUG	0.972
AGCGACC	-0.334
UUUAGAU	-0.448
ACUACCA	-0.681
GCGUGAA	0.485
UCAAGCU	-0.717
CCGUUGU	-0.548
CCGACGU	-0.272
UAGGCCC	-0.474
CGAGAGA	0.563
ACUAAAC	-0.662
AUACGGC	0.0593
GCGAGUG	1.59
CAUUGCC	-0.915
ACCCAAU	-0.678
GUCUUGU	-0.422
GCUAAGG	1.09
ACGUGUC	-0.574
CUUGCCC	-0.724
GACCUCU	-0.876
